# The list shows a part of the results.
# T1: UNK ZnF1-6 (called full-length) (human, UniProt Q9C0B0 30-357)
# T1 sequence: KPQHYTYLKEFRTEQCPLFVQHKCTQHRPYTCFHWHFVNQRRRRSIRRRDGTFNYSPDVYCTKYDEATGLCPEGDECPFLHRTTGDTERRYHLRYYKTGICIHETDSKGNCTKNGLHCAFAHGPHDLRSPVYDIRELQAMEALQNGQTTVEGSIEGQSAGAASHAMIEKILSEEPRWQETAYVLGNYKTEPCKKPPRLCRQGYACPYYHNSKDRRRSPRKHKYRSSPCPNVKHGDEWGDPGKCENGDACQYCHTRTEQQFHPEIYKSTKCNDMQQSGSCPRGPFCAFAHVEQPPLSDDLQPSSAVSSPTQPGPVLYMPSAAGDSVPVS
# B1: chr1:179105649:179105771:-|3pUTR|ENSG00000143322|msi1|total|mutant (ssRNA)
# RNA: GGGAGUUCUACAGUCCGACGAUCAGAAAGGAAACCUUGAUUCUUACCAUUGCUGCUCCAAAGGAGGCCCAGGUUAAGAGGAUCCGAGGAGACACGCGGUGCUGGGCAUUCCUGGCAGGUGUUGGGUGAUCCCCGCAGUAUGUCCAACAGAGGAUUGAGCAUCA
# B2: chr22:41177882:41177989:+|CDS|ENSG00000100393|unk|total|mutant (ssRNA)
# RNA: GGGAGUUCUACAGUCCGACGAUCCAAAACCUUUUGCGGACUCUCAGGUCUCCCAGCUCUCCCCUGCAGCAGCAACAGGUGCUCCGUAUCCUUCACGCCAACCCCCAGCUGUUGGCUGCAUUCAUCAAGCAGCGGGCUGCCAAGCAACAGAGGAUUGAGCAUCA
# B3: chr12:95514132:95514176:+|3pUTR|ENSG00000111142|msi1_unk|FALSE|overlapping (ssRNA)
# RNA: GGGAGUUCUACAGUCCGACGAUCCUUUUAAAUGCUAACUGUUUUUCCCCUUCCUGUCUAGGAAAAUGCUAUAAAGCUCAAAUUAGUUAGGAAUGACUUAUACGUUUUGUUUUGAAUACCUAAGAGAUACUUUUUGGAUAUUUACAACAGAGGAUUGAGCAUCA
# B4: chr17:35724233:35724342:+|3pUTR|ENSG00000006125|msi1_unk|total|mutant (ssRNA)
# RNA: GGGAGUUCUACAGUCCGACGAUCUCCUGGAGGCAGAGAUGCAGUUACCUACCCCCGCUUUUGAUGGGUUCUCUUACCUGCCGCCGCCUUAUCCCUGGUCAUUUGGAUUUUCAGUUUGCUUUUUUCUUUUUUUCCCCUCCAAACCAACAGAGGAUUGAGCAUCA
# B5: chr3:31657911:31664018:-|three_prime_utr|ENSG00000144645|control|control|control (ssRNA)
# RNA: GGGAGUUCUACAGUCCGACGAUCGGGUUUUUCUUGCUGAGCCCCCAAGACUGGAUAAAUACCAGGCAGGGGAAGGGAUGGACUAGGGCAGCUCGGUUCUGACUCCAGCUUUGGACAAGGCUUCAGGACAGGUUUUCUGCCACACAACAGAGGAUUGAGCAUCA
# B6: chr3:50341111:50341409:-|three_prime_utr|ENSG00000004838|control|control|control (ssRNA)
# RNA: GGGAGUUCUACAGUCCGACGAUCCGAUCUCCCUCCUCCUCACCCCAAGUGAAGGCUCGAGACUUCCUGCCCCACCCAGUGGGUAGGCCAAGUGUGUUGCUUCAGCAAACCGGACCAGGAGGGCCAGGGCCGGAUGUGGGGACCCAACAGAGGAUUGAGCAUCA
# B7: chr14:100278170:100278208:+|3pUTR|ENSG00000100811|msi1_unk|FALSE|overlapping (ssRNA)
# RNA: GGGAGUUCUACAGUCCGACGAUCGCUAUCUUAAUUUUGGUUGUAUUCUUUGAUGUUAACACAUUUUGUAUAAUUGUAUCGUAUAGCUGUAUUGAAUCAUGUAGUAUCAAAUAUUAGAUGUGAUUUAAUAGUGUUAAUCAAUUUCAACAGAGGAUUGAGCAUCA
# B8: chr2:200823707:200823808:+|3pUTR|ENSG00000082153|msi1|total|mutant (ssRNA)
# RNA: GGGAGUUCUACAGUCCGACGAUCUGAGUAACUUUGAUAAAGUUUUUCAUGCACAGGCAAAAUGUAUUCACCCGAUUUCUACGCCGUGAUCUGCUUUUACUUUGUAAUUUGCCGUUCUCAAAAGACUUUUUUUUAAAAAAAUAACAACAGAGGAUUGAGCAUCA
# B9: chr12:907890:907991:+|CDS|ENSG00000060237|msi1|FALSE|bound_elsewhere (ssRNA)
# RNA: GGGAGUUCUACAGUCCGACGAUCGCCUCCUGCCAUGACGUCCAGCAGGAAGGGCACAUUCACAGAUGACUUGCACAAGUUGGUAGACAAUUGGGCCCGAGAUGCCAUGAAUCUCUCAGGCAGGAGAGGAAGCAAAGGGCACAUCAACAGAGGAUUGAGCAUCA
# B10: chr12:123586815:123586897:+|5pUTR_CDS|ENSG00000086598|msi1_unk|FALSE|overlapping (ssRNA)
# RNA: GGGAGUUCUACAGUCCGACGAUCGAAUCCAGUGGGAAAUACACAUUUGCUGCUCACAUGGAUGGAACAUACAAAUUUUGUUUUAGUAACCGGAUGUCCACCAUGACUCCAAAAAUAGUGAUGUUCACCAUUGAUAUUGGGGAGCAACAGAGGAUUGAGCAUCA
# B11: chr17:4669773:4671531:-|three_prime_utr|ENSG00000141456|control|control|control (ssRNA)
# RNA: GGGAGUUCUACAGUCCGACGAUCACUUCAUCGAUUGUCCCCCUGAUGAUGAGAAGCCACCACCUCCCACAGAGCCUGACUCCUAGCCAUCUUCUGCACCCCACUCUUUGUUUCCAAUAAAGUUAUGUCCUUAGAUAGCGACUGCAACAGAGGAUUGAGCAUCA
# B12: chr5:122065063:122065164:-|3pUTR|ENSG00000113083|msi1|total|mutant (ssRNA)
# RNA: GGGAGUUCUACAGUCCGACGAUCUCAACUGGCGGAUACCGCGGUACAUAUGAUCCUCCGCCACCAGGGCACAAGCUUACCAGCCGACAAUACAGACAGAGCUUUUGUUGAGCUGUAACUGAGCUAUGGAACCGCUUCUUUGAUCAACAGAGGAUUGAGCAUCA
# B13: chr20:3649766:3649867:+|3pUTR|ENSG00000088812|unk|FALSE|bound_elsewhere (ssRNA)
# RNA: GGGAGUUCUACAGUCCGACGAUCAAGUUCAAAGACUAACCUGUAGCAAUCAGACUUUCCAAAAGGGGGUUCUCCAUUUUUUGUAGUUUUGUCUAAAUUUUUAAUGACCAUUUCCUGGAAUCAGUUUAUUAUACUGAAAACUGGCAACAGAGGAUUGAGCAUCA
# B14: chr11:113276847:113276948:+|3pUTR|ENSG00000149294|msi1|total|mutant (ssRNA)
# RNA: GGGAGUUCUACAGUCCGACGAUCAGAAGGGAAAAGCCAGCCCUUUGUACCGAAAUUUUGCUUUUUUUUCCCUCAUUCUACUUCCGAACUGCAAGCUUGUGCACUGUGGAUGCGUGAAUAUUUCCGUGUGAAACGUGUUUUUGUCAACAGAGGAUUGAGCAUCA
# Target: T1, UNK ZnF1-6 (called full-length)
# Assay: nsRBNS (natural sequence RNA bind-n-seq); RBNS binding buffer (assumed for nsRBNS): 25 mM Tris pH 7.5, 150 mM KCl, 3 mM MgCl2, 0.01% Triton X-100, 500 ug/ml BSA, 20 U/ml SUPERase-In, 4 C; UNK is unkempt and MSI1 is Musashi-1; names of the RNAs are library labels; protein concentration not given here; high values mean tight binding
row,Binder,binding signal [enrichment R]
1,B1,0.722
2,B2,0.882
3,B3,2.63
4,B4,0.669
5,B5,0.94
6,B6,0.749
7,B7,14.1
8,B8,0.553
9,B9,0.752
10,B10,0.492
11,B11,1.21
12,B12,0.553
13,B13,3.29
14,B14,0.264

# — paper PMC12136788
